In the supplement of paper PMC9446081:
Screen size: about 39,000 compounds; about 220 (0.56%) showed activity. This is one part of the list.

System: Escherichia coli K-12 BW25113
Experiment: relative growth (OD600 normalised to plate interquartile mean) (fraction); higher = less growth inhibition, active = 0.2 or less
Conditions: 50 µM; LB; incubation time: overnight (16-24 h)
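Further: static incubation at 37 °C against the wild-type strain, values averaged over two biological replicates.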

**Q.** How did the relative growth turn out when `Cc1noc(C)c1NC(=O)N(C)C[C@H]1Oc2ccc(NS(C)(=O)=O)cc2C(=O)N([C@H](C)CO)C[C@@H]1C` was run?
**A.** inactive: 0.957

**Q.** How did the relative growth turn out when `COc1ccc2c3c(n(c2c1)C)[C@H](CO)N(C[C@]13CCN(CC1)C(=O)c1ccccc1)C(=O)Nc1ccccc1F` was run?
**A.** inactive: 1.02

**Q.** With `C[C@@H]1CN([C@@H](C)CO)C(=O)c2cccc(NC(=O)C3CCCCC3)c2O[C@@H]1CN(C)C(=O)Nc1cccc2ccccc12` as the compound, how does the relative growth read?
**A.** inactive: 1.01

**Q.** How did the relative growth turn out when `O=C(C[C@@H]1CC[C@H]2[C@@H](COC[C@H](O)CN2S(=O)(=O)c2ccc(Oc3ccccc3)cc2)O1)NCCN1CCCCC1` was run?
**A.** inactive: 0.999

**Q.** `Cn1c(=O)c(C(=O)NCCO)c(O)c2ccccc21` was tested. Which relative growth did it give?
**A.** inactive: 0.919

**Q.** How did the relative growth turn out when `O=C(Nc1ccc2ccccc2c1)c1ccc(Cl)cc1Cl` was run?
**A.** inactive: 1.01

**Q.** `C[C@@H]1CN([C@H](C)CO)S(=O)(=O)c2ccc(C#Cc3cccnc3)cc2O[C@H]1CN(C)CC1CCOCC1` was tested. Which relative growth did it give?
**A.** inactive: 1.01

**Q.** For `C[C@H]1CN([C@@H](C)CO)C(=O)c2c(c3ccccc3n2C)-c2ccccc2CO[C@H]1CN(C)Cc1ccc(C(F)(F)F)cc1`, which relative growth is on record?
**A.** inactive: 1.05

**Q.** For `C[C@@H]1CN([C@H](C)CO)C(=O)Cc2cc(NC(=O)NC3CCCCC3)ccc2O[C@@H]1CN(C)C(=O)Nc1ccc(C(F)(F)F)cc1`, which relative growth is on record?
**A.** inactive: 0.99

**Q.** With `Cc1ccc(S(=O)(=O)N(C)C[C@H]2Oc3ccc(N(C)C)cc3CC(=O)N([C@H](C)CO)C[C@H]2C)cc1` as the compound, how does the relative growth read?
**A.** inactive: 1

**Q.** How did the relative growth turn out when `OCCN1CCN(c2ncnc3c2ncn3[C@H]2CN(Cc3ccc(F)cc3)C[C@@H](CO)O2)CC1` was run?
**A.** inactive: 0.979

**Q.** With `Cc1noc(C)c1S(=O)(=O)Nc1ccc2c(c1)C(=O)N([C@@H](C)CO)C[C@H](C)[C@H](CN(C)C(=O)Nc1ccc3c(c1)OCO3)O2` as the compound, how does the relative growth read?
**A.** inactive: 1.03

**Q.** How did the relative growth turn out when `COc1cc(-c2coc3cc(O)c(OC)c(O)c3c2=O)cc(O)c1OC` was run?
**A.** inactive: 1

**Q.** With `NCc1nnc2n1CCC2` as the compound, how does the relative growth read?
**A.** inactive: 0.993

**Q.** How did the relative growth turn out when `C[C@H](CO)N1C[C@H](C)[C@@H](CN(C)S(=O)(=O)c2cn(C)cn2)Oc2cc(C#Cc3ccc(F)cc3)ccc2S1(=O)=O` was run?
**A.** inactive: 0.994

**Q.** `C[C@H](CO)N1C[C@H](C)[C@@H](CN(C)Cc2ccc(Cl)c(Cl)c2)OCCCC[C@H](C)Oc2ccc(N(C)C)cc2C1=O` was tested. Which relative growth did it give?
**A.** inactive: 1

**Q.** For `O=c1cccc(C=Cc2ccc3c(c2)OCO3)o1` ["6-(3,4-METHYLENEDIOXYSTYRYL)-alpha-PYRONE"], which relative growth is on record?
**A.** inactive: 1.06

**Q.** How did the relative growth turn out when `COc1ccc(cc1)CN1C[C@]2(CCN(CC2)Cc2ccccc2OC)c2c([nH]c3cc(ccc23)OC)[C@@H]1CO` was run?
**A.** inactive: 1

**Q.** `COCC(=O)Nc1ccc2c(c1)C(=O)N(C)[C@@H]1CC[C@H](CC(=O)NC3Cc4ccccc4C3)O[C@H]1CO2` was tested. Which relative growth did it give?
**A.** inactive: 0.98

**Q.** How did the relative growth turn out when `C[C@@H]1CCCCO[C@H](CN(C)C(=O)c2ccccc2)[C@H](C)CN([C@@H](C)CO)C(=O)c2cc(NC(=O)Cc3ccccc3)ccc2O1` was run?
**A.** inactive: 1.01

**Q.** Which relative growth does the source give for `CCCCCCOC(=O)/N=C(/N)c1ccc(NCc2nc3cc(C(=O)N(CCC(=O)OCC)c4ccccn4)ccc3n2C)cc1` here?
**A.** inactive: 0.942

**Q.** How did the relative growth turn out when `COc1ccc(NC(=O)Nc2ccc3c(c2)C(=O)N([C@H](C)CO)C[C@H](C)[C@@H](CN(C)S(=O)(=O)c2ccccc2)OCCCC[C@H](C)O3)cc1` was run?
**A.** inactive: 1.03

**Q.** With `CS(=O)(=O)N1CCS(=O)(=O)[C@H]2CCN(CC3CC3)CC[C@@H]21` as the compound, how does the relative growth read?
**A.** inactive: 1

**Q.** With `C[C@@H]1CN([C@@H](C)CO)C(=O)Cc2cc(NC(=O)CCC(F)(F)F)ccc2O[C@@H]1CN(C)Cc1ccc(Oc2ccccc2)cc1` as the compound, how does the relative growth read?
**A.** inactive: 0.99

**Q.** How did the relative growth turn out when `C=CC[C@H](CC(=O)N(CCO)Cc1ccccc1)C(=O)NC[C@@H](OC(=O)[C@@H](CC=C)Cc1ccc(F)cc1)c1ccccc1` was run?
**A.** inactive: 0.899

**Q.** Which relative growth does the source give for `COc1cccc(-c2ccc3n(c2=O)C[C@@H]2[C@@H](CO)[C@H](C(=O)NCC4CC4)[C@H]3N2S(C)(=O)=O)c1` here?
**A.** inactive: 0.96

**Q.** Which relative growth does the source give for `C[C@@H]1CN([C@H](C)CO)C(=O)c2cc(NC(=O)CCN3CCOCC3)ccc2O[C@@H]1CN(C)C(=O)Nc1ccc2c(c1)OCO2` here?
**A.** inactive: 1.01

**Q.** For `C[C@H]1CCCCO[C@H](CN(C)C(=O)Cc2ccccc2)[C@@H](C)CN([C@@H](C)CO)C(=O)c2cc(NC(=O)NC3CCCCC3)ccc2O1`, which relative growth is on record?
**A.** inactive: 0.992

**Q.** `C[C@@H]1CN([C@H](C)CO)C(=O)c2cccc(NC(=O)c3cnccn3)c2O[C@@H]1CN(C)Cc1ccccc1` was tested. Which relative growth did it give?
**A.** inactive: 1.01

**Q.** For `C[C@H]1CN([C@@H](C)CO)C(=O)c2cc(NC(=O)NC3CCCCC3)ccc2O[C@H]1CN(C)Cc1ccc(Oc2ccccc2)cc1`, which relative growth is on record?
**A.** inactive: 1.04

**Q.** With `COCC(=O)N(C)C[C@@H]1Oc2cc(-c3ccc(OC)cc3)ccc2S(=O)(=O)N([C@@H](C)CO)C[C@H]1C` as the compound, how does the relative growth read?
**A.** inactive: 0.977

**Q.** How did the relative growth turn out when `C[C@@H]1CN([C@H](C)CO)C(=O)Cc2cc(NS(=O)(=O)c3cccs3)ccc2O[C@@H]1CN(C)S(=O)(=O)c1cn(C)cn1` was run?
**A.** inactive: 0.955

**Q.** Which relative growth does the source give for `Cc1ccc(S(=O)(=O)N(C)C[C@H]2OCCCC[C@H](C)Oc3ccc(NS(=O)(=O)c4ccc(Cl)cc4)cc3C(=O)N([C@@H](C)CO)C[C@H]2C)cc1` here?
**A.** inactive: 1.01

**Q.** `C[C@H](CO)N1C[C@H](C)[C@@H](CN(C)C(=O)Nc2ccc(C(C)(C)C)cc2)OCc2cnnn2CCCC1=O` was tested. Which relative growth did it give?
**A.** inactive: 0.993

**Q.** Which relative growth does the source give for `C[C@@H]1CN([C@@H](C)CO)C(=O)c2cccc(NC(=O)Nc3ccc(F)cc3)c2O[C@H]1CN(C)Cc1ccc(C(F)(F)F)cc1` here?
**A.** inactive: 0.906

**Q.** How did the relative growth turn out when `COc1ccccc1S(=O)(=O)N[C@@H]1C=C[C@@H](CC(=O)N2CCN(C)CC2)O[C@@H]1CO` was run?
**A.** inactive: 0.975

**Q.** With `COc1ccc([Si](C)(C)[C@@H]2[C@@H](CC(=O)N3CCC[C@H]3CO)O[C@]3(C(=O)N(Cc4cccc(N5C(=O)c6cccc7cccc5c67)c4)c4ccccc43)[C@H]2C)cc1` as the compound, how does the relative growth read?
**A.** inactive: 0.948

**Q.** For `COc1ccc(NC(=O)Nc2ccc3c(c2)C(=O)N([C@@H](C)CO)C[C@H](C)[C@H](CN(C)C(=O)Nc2cccc4ccccc24)O3)cc1`, which relative growth is on record?
**A.** inactive: 1.01

**Q.** `COC1=C(OC)C(=O)C(CCCCCCCCCCO)=C(C)C1=O` was tested. Which relative growth did it give?
**A.** inactive: 1.05

**Q.** Which relative growth does the source give for `C[C@H](CO)N1C[C@H](C)[C@@H](CN(C)Cc2ccc(C(F)(F)F)cc2)OCCCC[C@H](C)Oc2ccc(N(C)C)cc2C1=O` here?
**A.** inactive: 0.999

**Q.** For `O=c1cc(-c2ccccc2)[nH]c(=O)[nH]1`, which relative growth is on record?
**A.** inactive: 1

**Q.** Which relative growth does the source give for `C[C@H](CO)N1C[C@H](C)[C@@H](CN(C)C(=O)Nc2ccc(-c3ccccc3)cc2)OCc2ccccc2-c2c(n(C)c3ccccc23)C1=O` here?
**A.** inactive: 1.04

**Q.** For `C[C@@H]1CN([C@@H](C)CO)C(=O)c2cc(NS(C)(=O)=O)ccc2O[C@H]1CN(C)S(C)(=O)=O`, which relative growth is on record?
**A.** inactive: 1.01

**Q.** For `CN1C[C@@H]2CN(C(=O)CO)C[C@@H]2c2ccccc21`, which relative growth is on record?
**A.** inactive: 1

**Q.** With `COc1ccc(S(=O)(=O)N(C)C[C@H]2OCCCC[C@@H](C)Oc3ccc(NC(=O)NC4CCCCC4)cc3C(=O)N([C@@H](C)CO)C[C@H]2C)cc1` as the compound, how does the relative growth read?
**A.** inactive: 1.02

**Q.** How did the relative growth turn out when `C[C@H]1CN([C@@H](C)CO)C(=O)c2cccc(NS(=O)(=O)c3cccs3)c2O[C@@H]1CN(C)Cc1ccc(-c2ccccc2)cc1` was run?
**A.** inactive: 1.01

**Q.** How did the relative growth turn out when `CCCCCCC#C[Si](O[C@H](c1ccccc1)c1cn(Cc2cccc(Cl)c2)nn1)(C(C)C)C(C)C` was run?
**A.** inactive: 0.991

**Q.** How did the relative growth turn out when `CO[C@@H]1CN(C)C(=O)c2cc(NC(C)=O)ccc2OC[C@@H](C)N(S(=O)(=O)c2cn(C)cn2)C[C@H]1C` was run?
**A.** inactive: 0.984

**Q.** How did the relative growth turn out when `CC(C)CC#Cc1ccc2c(c1)O[C@H](CN(C)C(=O)c1cnccn1)[C@@H](C)CN([C@@H](C)CO)S2(=O)=O` was run?
**A.** inactive: 0.981

**Q.** For `CCc1cccc(C(C)C)c1NC(=O)Nc1ccccc1`, which relative growth is on record?
**A.** inactive: 1.04

**Q.** For `C[C@H]1CN([C@@H](C)CO)C(=O)c2cccc(NC(=O)CCCCCC(=O)Nc3ccccc3N)c2O[C@@H]1CN(C)Cc1ccc(Oc2ccccc2)cc1`, which relative growth is on record?
**A.** inactive: 1.01

**Q.** With `Cc1noc(C)c1S(=O)(=O)Nc1ccc2c(c1)C(=O)N([C@@H](C)CO)C[C@@H](C)[C@H](CN(C)S(=O)(=O)c1cccs1)O2` as the compound, how does the relative growth read?
**A.** inactive: 1

**Q.** `C[C@@H]1CCCCO[C@H](CN(C)S(=O)(=O)c2ccc(Cl)cc2)[C@H](C)CN([C@@H](C)CO)C(=O)c2cc(NC(=O)c3ccccc3)ccc2O1` was tested. Which relative growth did it give?
**A.** inactive: 1.05

**Q.** How did the relative growth turn out when `COc1ccc(S(=O)(=O)N(C)C[C@@H]2Oc3cc(C4=CCCC4)ccc3S(=O)(=O)N([C@@H](C)CO)C[C@@H]2C)cc1` was run?
**A.** inactive: 1.04

**Q.** `C[C@@H]1CCCCO[C@@H](CN(C)C(=O)C2CCCCC2)[C@H](C)CN([C@H](C)CO)C(=O)c2cc(NC(=O)Nc3ccc(F)cc3)ccc2O1` was tested. Which relative growth did it give?
**A.** inactive: 1.05

**Q.** `COc1ccc(CN(C)C[C@H]2Oc3ccc(NC(=O)Cn4cnnn4)cc3C(=O)N([C@@H](C)CO)C[C@H]2C)cc1` was tested. Which relative growth did it give?
**A.** inactive: 0.99

**Q.** How did the relative growth turn out when `C[C@@H]1CN([C@@H](C)CO)C(=O)c2cccc(NS(C)(=O)=O)c2O[C@H]1CN(C)C(=O)Nc1ccc2c(c1)OCO2` was run?
**A.** inactive: 1

**Q.** For `C[C@@H]1CCCCO[C@@H](CN(C)Cc2ccncc2)[C@H](C)CN([C@H](C)CO)C(=O)c2cc(NC(=O)CCC(F)(F)F)ccc2O1`, which relative growth is on record?
**A.** inactive: 0.975

**Q.** With `C=C1C2CCC3(C)C(c4ccoc4)OC(=O)CC13OC1CC(O)C(C)(C)C(CC(=O)OC)C12C` (stereo not drawn) [3alpha-HYDROXY-3-DEOXYANGOLENSIC ACID METHYL ESTER] as the compound, how does the relative growth read?
**A.** inactive: 1.11

**Q.** How did the relative growth turn out when `NC[C@@H]1O[C@H](C23CC4CC(CC(C4)C2)C3)Cc2c1ccc(O)c2O` was run?
**A.** inactive: 1
